Laboratory results from publication PMC4336329 (PLoS ONE, 2015).
The whole screen tested about 310,000 compounds, of which about 2,200 (0.71%) showed an effect of 50% or more. The effect is printed as a negative number. This is one part of the list.

What follows are compounds tested against human ether-à-go-go-related gene (hERG) potassium channel (human, UniProt Q12809) (assay: primary screen, population patch clamp on CHO cells stably expressing hERG).
Sequence of human ether-à-go-go-related gene (hERG) potassium channel (Q12809 whole entry, looked up): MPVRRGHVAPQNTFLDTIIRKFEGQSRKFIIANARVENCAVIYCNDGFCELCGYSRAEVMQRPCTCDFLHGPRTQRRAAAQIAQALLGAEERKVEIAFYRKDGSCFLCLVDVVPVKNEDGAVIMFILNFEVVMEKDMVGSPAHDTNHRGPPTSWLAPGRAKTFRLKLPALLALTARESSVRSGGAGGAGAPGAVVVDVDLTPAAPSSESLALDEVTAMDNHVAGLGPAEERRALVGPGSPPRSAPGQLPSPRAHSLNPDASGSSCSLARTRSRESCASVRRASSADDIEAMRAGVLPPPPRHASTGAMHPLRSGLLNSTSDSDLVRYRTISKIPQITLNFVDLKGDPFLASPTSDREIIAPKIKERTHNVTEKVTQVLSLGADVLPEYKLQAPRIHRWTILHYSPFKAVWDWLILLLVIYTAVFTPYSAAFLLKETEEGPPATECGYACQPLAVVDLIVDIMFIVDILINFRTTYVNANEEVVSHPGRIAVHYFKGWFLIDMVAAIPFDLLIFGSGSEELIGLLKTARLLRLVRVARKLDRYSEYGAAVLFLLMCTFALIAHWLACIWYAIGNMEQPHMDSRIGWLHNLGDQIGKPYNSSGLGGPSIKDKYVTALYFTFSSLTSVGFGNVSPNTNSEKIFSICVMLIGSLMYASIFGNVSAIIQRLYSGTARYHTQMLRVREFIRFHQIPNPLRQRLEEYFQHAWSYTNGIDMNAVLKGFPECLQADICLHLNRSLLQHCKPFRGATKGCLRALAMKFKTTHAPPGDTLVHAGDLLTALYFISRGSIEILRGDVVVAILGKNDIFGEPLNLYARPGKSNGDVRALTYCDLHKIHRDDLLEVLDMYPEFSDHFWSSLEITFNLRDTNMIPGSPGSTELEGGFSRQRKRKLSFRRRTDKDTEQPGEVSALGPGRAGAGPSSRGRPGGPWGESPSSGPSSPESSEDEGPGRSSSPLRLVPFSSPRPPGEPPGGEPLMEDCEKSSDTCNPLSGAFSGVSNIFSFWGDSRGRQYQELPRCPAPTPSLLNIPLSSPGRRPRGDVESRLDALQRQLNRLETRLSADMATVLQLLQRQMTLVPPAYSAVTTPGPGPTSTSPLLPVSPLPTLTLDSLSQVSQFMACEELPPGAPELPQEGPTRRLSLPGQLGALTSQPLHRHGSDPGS

Going from `Cc1cc(NC(=O)Cc2ccccc2)ccc1NC(=O)c1cccs1` to `O=C(CCC(=O)NNC(=O)Nc1cccc(Cl)c1)NCc1ccccc1`, the “hERG current change (%, negative = inhibition) at 1uM” value rises from 5.61% to 10.1%.

First: O=C(NC(=S)Nc1ccc(CN2CCOCC2)cc1)c1ccc(-c2ccc(Br)cc2)o1
Second: N#C/C(=C\c1ccc(OCc2ccc(Br)cc2)cc1)C(=O)Nc1cccc(C(=O)O)c1
The “hERG current change (%, negative = inhibition) at 1uM” value of the first is higher: 16.1% for the first, 15.4% for the second.

Going from `Cn1cc(-c2ccno2)c(C(=O)O)n1` to `COc1ccc(-n2nc(C(=O)O)c3ccccc3c2=O)cc1`, the “hERG current change (%, negative = inhibition) at 1uM” value falls from 13.3% to 2.83%.

First: O=c1n(Cc2ccccc2)c2cc(Cl)cnc2n1Cc1ccccc1
Second: O=C(CSCc1cccc(Cl)c1)Nc1ccccc1-c1ccccc1
The “hERG current change (%, negative = inhibition) at 1uM” value of the first is higher: 3.08% for the first, -2.3% for the second.

Compared with `CC(Oc1ccc(C(=O)c2ccccc2)cc1)C(=O)N1CCOCC1` (stereo not shown), `Cc1nnc(SCC(=O)N2CCOCC2)c2ccccc12` is higher in “hERG current change (%, negative = inhibition) at 1uM” value: -5.31% for the first, -0.884% for the second.

Compared with `CCOc1ncccc1C(=O)NCC1COc2ccccc2O1` (stereo not shown), `O=C(N/N=C/c1cccnc1)c1ccc2ccccc2c1O` is higher in “hERG current change (%, negative = inhibition) at 1uM” value: 5.36% for the first, 14.3% for the second.

First: FC(F)Oc1ccc(NC(=S)NNc2ccnc3cc(Cl)ccc23)cc1
Second: COc1ccc(OCC(O)CNC(=O)Nc2ccc(Cl)cc2)cc1 (stereo not shown)
The “hERG current change (%, negative = inhibition) at 1uM” value of the first is higher: 15.6% for the first, 8.21% for the second.

First: COC(=O)C1=C(C)N(C(C)C)C(=O)C1(NC(=O)C1CCCCC1)C(F)(F)F (stereo not shown)
Second: O=C(NC1CCCCC1)C(c1c(F)cccc1Cl)N(C(=O)c1csnn1)C1CC1 (stereo not shown)
The “hERG current change (%, negative = inhibition) at 1uM” value of the first is lower: 1.89% for the first, 18.4% for the second.

Going from `Cc1ccc(NC(=S)/C(=C(\[O-])c2ccc(Cl)s2)[n+]2cccc(CO)c2)cc1C` to `Cc1ccc(NC(=O)CN(C)CC(=O)Nc2ccc(F)c(Cl)c2)cc1.O=C(O)C(=O)O`, the “hERG current change (%, negative = inhibition) at 1uM” value rises from 4.6% to 4.7%.

Compared with `COC(=O)c1sccc1NC(=S)N1CC(C)CC(C)C1` (stereo not shown), `COc1ccc(OCC(=O)N(Cc2sccc2C)C2CCS(=O)(=O)C2)cc1` (stereo not shown) is lower in “hERG current change (%, negative = inhibition) at 1uM” value: 13.4% for the first, -11.8% for the second.

Compared with `COCCCn1c(C)cc(C(=O)COC(=O)CCc2nc3ccccc3c(=O)[nH]2)c1C`, `CCOC(=O)C1CCN(c2nc3ccccc3nc2C(C#N)C(=O)OCCOC)CC1` (stereo not shown) is lower in “hERG current change (%, negative = inhibition) at 1uM” value: 13% for the first, 11% for the second.

Compared with `Cc1nn(CC(=O)NCCCN2CCCCC2C)c(=O)c2cccn12` (stereo not shown), `CN(C)c1ccc(S(=O)(=O)N2CCCCC2)cc1NC(=O)CCNC(=O)c1ccco1` is lower in “hERG current change (%, negative = inhibition) at 1uM” value: 19.2% for the first, 9.59% for the second.

Compared with `O=C(Nc1cccc([N+](=O)[O-])c1)c1ccc2snnc2c1`, `O=C(Nc1cc(Sc2nc3ccccc3s2)cc([N+](=O)[O-])c1)c1cccc(F)c1F` is higher in “hERG current change (%, negative = inhibition) at 1uM” value: -0.532% for the first, 6.89% for the second.

Compared with `Cc1ccc2nc(-c3ccccc3)cc(C(=O)N3CCN(S(=O)(=O)c4c(C)noc4C)CC3)c2c1`, `Cc1cccc(NC(=O)COc2coc(CN3CCN(Cc4ccccc4)CC3)cc2=O)c1` is lower in “hERG current change (%, negative = inhibition) at 1uM” value: -0.0323% for the first, -28.3% for the second.

First: CCN(/C=N/S(=O)(=O)c1ccc(Cl)cc1)CC
Second: CCc1cccc(C)c1NC(=O)COC(=O)C(NS(=O)(=O)c1ccc(Cl)cc1)C(C)O (stereo not shown)
The “hERG current change (%, negative = inhibition) at 1uM” value of the first is lower: -3.63% for the first, 7.01% for the second.

First: CCN1CCN(C(=O)CNC(=O)c2nn(-c3ccc(OC)cc3)c(=O)c3ccccc23)CC1
Second: CCCCNC(=O)C1c2ccccc2C(=O)N(c2ccc(OC)cc2)C1c1ccc(OC)cc1 (stereo not shown)
The “hERG current change (%, negative = inhibition) at 1uM” value of the first is higher: 16.6% for the first, 14.2% for the second.

First: CCOc1cc2[nH]c(=O)n(Cc3ccc(C(=O)NCCOC)cc3)c(=O)c2cc1OCC
Second: COc1ccc(CN(C)C(=O)c2ccc(COc3ccccc3)cc2)c(OC)c1
The “hERG current change (%, negative = inhibition) at 1uM” value of the first is lower: 4.96% for the first, 11.3% for the second.

Going from `Cc1ccc(C(=O)NN2C(=O)CSC2=S)cc1` to `COCCN1C(=O)C(=O)/C(=C(/O)c2ccc(C)cc2)C1c1ccccn1` (stereo not shown), the “hERG current change (%, negative = inhibition) at 1uM” value rises from 3.57% to 22%.

Going from `Clc1cccc(C2CCN(Cc3nc(CC4CC4)no3)C2)c1` (stereo not shown) to `Clc1cccc(CN2CCSCC2)c1Cl`, the “hERG current change (%, negative = inhibition) at 1uM” value rises from -2.02% to 13.4%.

First: CCN(C(=O)CSc1nnc(SC)s1)c1c(N)n(Cc2ccccc2)c(=O)[nH]c1=O
Second: CCOC(=O)c1sc(C)c2c(=O)n(CCc3ccccc3)nnc12
The “hERG current change (%, negative = inhibition) at 1uM” value of the first is higher: 13.8% for the first, 13.4% for the second.

Going from `CCOC(=O)C1=C(C)N(c2nonc2NC(C)=O)C(N)=C(C#N)C1c1ccccc1F` (stereo not shown) to `Cc1cc(C)c2c(-n3cccc3)c(NC(=O)OCc3ccccc3)sc2n1`, the “hERG current change (%, negative = inhibition) at 1uM” value falls from 5.92% to 0.703%.

Going from `Cc1noc(C)c1CSc1nc2sc3c(c2c(=O)n1C)CCCC3` to `Cc1nc2nc(-c3ccco3)[nH]n2c(=O)c1C`, the “hERG current change (%, negative = inhibition) at 1uM” value falls from 9.65% to 2.55%.

First: O=C1CCCC2=C1C(c1ccncc1)Nc1ccccc1N2 (stereo not shown)
Second: Fc1ccc(N2CCN(C3CCC(c4ccccc4)CC3)CC2)cc1 (stereo not shown)
The “hERG current change (%, negative = inhibition) at 1uM” value of the first is lower: 10.7% for the first, 11.8% for the second.

Going from `Cc1csc(NC(=O)c2ccncc2)n1` to `Cc1csc(NC(=O)C2CCCO2)n1` (stereo not shown), the “hERG current change (%, negative = inhibition) at 1uM” value falls from 11.7% to -3.56%.

Compared with `O=C(CCN1C(=O)C2CC=CCC2C1=O)Nc1cccc(Cl)c1` (stereo not shown), `O=C(CCN1C(=O)/C(=C/c2ccco2)SC1=S)Nc1ccc(O)cc1C(=O)O` is lower in “hERG current change (%, negative = inhibition) at 1uM” value: 6.95% for the first, 4.86% for the second.

Compared with `CC(=O)c1ccc(NC(=O)Cn2c(=O)oc3ccccc32)cc1`, `C=CCn1c(SCC(=O)Nc2ccc(C(=O)O)cc2)nnc1-c1cccnc1` is lower in “hERG current change (%, negative = inhibition) at 1uM” value: 18.5% for the first, 14.8% for the second.

Compared with `COC(=O)c1ccc(NC(=O)c2cc3c(CO)cnc(C)c3oc2=Nc2cccc(C(N)=O)c2)cc1`, `COc1cccc(N=c2oc3c(C)ncc(CO)c3cc2C(N)=O)c1` is lower in “hERG current change (%, negative = inhibition) at 1uM” value: 14.5% for the first, 2.52% for the second.

Compared with `FC(F)(F)c1ccc(-c2n[nH]c(=S)o2)nc1`, `Cc1ccc(/C=C/C(=O)N2CCN(c3cccc(C(F)(F)F)c3)CC2)cc1` is lower in “hERG current change (%, negative = inhibition) at 1uM” value: 9.8% for the first, 3.99% for the second.

First: Cc1cccc(-c2nnc(-c3ccccc3)o2)c1
Second: CCOC(=O)c1nnc(-c2ccccc2)nc1Oc1ccc(Cl)cc1
The “hERG current change (%, negative = inhibition) at 1uM” value of the first is higher: 10.1% for the first, -18.4% for the second.

Compared with `CC(=O)N1CCN(C(=O)CCNS(=O)(=O)c2ccc(Br)cc2)CC1`, `CCOC(=O)C1CCN(C(=O)CC(C)S(=O)(=O)c2ccc3c(c2)NC(=O)CO3)CC1` (stereo not shown) is higher in “hERG current change (%, negative = inhibition) at 1uM” value: 11.5% for the first, 20.8% for the second.

First: CC(NC(=O)CN1CCN(Cc2cccc(F)c2)CC1)c1ccccc1 (stereo not shown)
Second: CC(C)CC1Nc2ncnc(N3CCN(c4ccccc4)CC3)c2N(Cc2ccccc2)C1=O.O=C(O)C(F)(F)F (stereo not shown)
The “hERG current change (%, negative = inhibition) at 1uM” value of the first is higher: 14.9% for the first, 5.28% for the second.

Going from `Cc1cc(C)c(-c2csc(NC(=O)c3n[nH]c(=O)c4ccccc34)n2)c(C)c1` to `Cc1c(Cc2ccccc2)c(=O)oc2c(C)c(OCC(=O)NCc3ccccn3)ccc12`, the “hERG current change (%, negative = inhibition) at 1uM” value rises from -0.562% to 14.7%.

First: Cc1cc(C)nc(SCc2n[nH]c(=S)n2C)n1
Second: Clc1c(CSc2nc3ccccc3o2)nc2ccccn12
The “hERG current change (%, negative = inhibition) at 1uM” value of the first is lower: 7.9% for the first, 9.77% for the second.

Going from `CCC(C)NC(=O)COc1ccc(Br)c(C)c1` (stereo not shown) to `COc1ccc2cc(CCNC(=O)CC(C)(C)C)c(=O)[nH]c2c1`, the “hERG current change (%, negative = inhibition) at 1uM” value falls from 10.6% to 1.62%.

Compared with `CC1Sc2ccccc2N(CC(=O)N(C(C)C)C(C)C)C1=O` (stereo not shown), `Cc1ccc(C2(C)NC(=O)N(CC(=O)NC(=O)NC(C)C)C2=O)cc1` (stereo not shown) is lower in “hERG current change (%, negative = inhibition) at 1uM” value: 10.5% for the first, 8.86% for the second.

Compared with `Nc1cccc(S(=O)(=O)Nc2ccccc2)c1`, `CC(O)(CS(=O)(=O)Cc1ccccc1Cl)C(=O)Nc1cccc(C(F)(F)F)c1` (stereo not shown) is lower in “hERG current change (%, negative = inhibition) at 1uM” value: 15.5% for the first, -10.7% for the second.

Compared with `Cn1c(NCc2ccco2)nc2c1c(=O)n(Cc1ccc(Cl)c(Cl)c1)c(=O)n2C`, `CN1C(=O)N(C)C(=O)C2(Cc3ccccc3N3CCOCC32)C1=O` (stereo not shown) is higher in “hERG current change (%, negative = inhibition) at 1uM” value: -5.94% for the first, 8.98% for the second.

Going from `CN(Cc1ccco1)C(=O)C1CCN(c2nnc(-n3cccc3)s2)CC1` to `CN(Cc1ccccc1)C(=O)c1ccc(NC(=O)Cc2cccc(NC(=O)C3CCN(C(=O)C4CCC4)CC3)c2)cc1`, the “hERG current change (%, negative = inhibition) at 1uM” value rises from -14.4% to 8.22%.

Going from `CC1(C)CC(=O)C=C(Nc2ccccc2F)C1` to `CCC1(CC)C(=O)NN(c2ccccc2)C1=O`, the “hERG current change (%, negative = inhibition) at 1uM” value rises from -0.807% to 6.26%.

Compared with `NSc1nc(N)c2nc(-c3ccccc3)c(-c3ccccc3)nc2n1`, `COc1cccc(-c2nnc3sc(-c4ccccn4)nn23)c1` is lower in “hERG current change (%, negative = inhibition) at 1uM” value: 13% for the first, -4.31% for the second.

First: COc1ccc(S(=O)(=O)n2nc(OCc3cccs3)cc2N)cc1
Second: COc1ccc2c(c1)C1=NN(/C(C)=C/C(C)=O)C(c3ccc(F)cc3)C1CC2 (stereo not shown)
The “hERG current change (%, negative = inhibition) at 1uM” value of the first is lower: -7.53% for the first, 2.13% for the second.

Compared with `O=C(NCc1ccc(Cl)cc1)C1CCCN(c2ncnc3c2nc2n3CCCCC2)C1` (stereo not shown), `CC(Oc1ccccc1F)C(=O)NNC(=O)C1CC(=O)N(c2ccc3c(c2)OCCO3)C1` (stereo not shown) is higher in “hERG current change (%, negative = inhibition) at 1uM” value: -4.72% for the first, 4.26% for the second.

Going from `CC(C)(C)CC(=O)OCC(=O)Nc1cc(C(C)(C)C)nn1-c1ccccc1` to `Cc1cc(Cl)ccc1OCC(=O)OCC(=O)NC1CCS(=O)(=O)C1` (stereo not shown), the “hERG current change (%, negative = inhibition) at 1uM” value rises from -12.9% to -2.3%.

Compared with `O=C1NCC(COCc2ccco2)O1` (stereo not shown), `COC(=O)[C@@H]1C[C@H]2CC[C@H](O)C[C@H]2N1Cc1ccccc1OS(=O)(=O)c1ccc(C)cc1` is lower in “hERG current change (%, negative = inhibition) at 1uM” value: 15.8% for the first, 13.1% for the second.
